The supplement of paper PMC9151546
Many values rest on one well or one pass, so single values are uncertain.

Legend:
[1] = test system: CHO-K1; experiment: relative survival (nuclei to bead ratio vs DMSO control) (% of vehicle control); higher = more surviving cells
Experimental: (§1)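 Flow-cytometric in vitro micronucleus assay (Litron MicroFlow) in CHO-K1 cells in 96-well plates, 19 concentrations (4.5-200 µM, n=1 per concentration). Without S9, cells were exposed for 24 h and sampled at 48 h. With Aroclor 1254-induced rat liver S9, cells were exposed for 3-4 h and sampled at 27-28 h. Read-outs are %MN and %hypodiploid nuclei relative to nucleated events, and relative survival as the nuclei-to-bead ratio versus the 1% DMSO vehicle control (x100).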

[2] = test system: CHO-K1; experiment: micronucleus frequency (% of nucleated events); higher = more micronuclei (genotoxic)
[3] = test system: CHO-K1; experiment: hypodiploid nuclei frequency (% of nucleated events); higher = more hypodiploid events (aneugenic)
Experimental: as §1
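For hypodiploid nuclei frequency (% of nucleated events) in this document: hypodiploid nuclei gated on a flow cytometer with 488 nm excitation after SYTOX Green staining, cultures at 37 °C, positive controls vinblastine without S9 and cyclophosphamide with S9.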
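For micronucleus frequency (% of nucleated events) in this document: cells lysed with nuclei stained by SYTOX Green, then micronucleus-gated events counted against nucleated events by flow cytometry with 488 nm excitation.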
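For relative survival (nuclei to bead ratio vs DMSO control) in this document: Lysed-cell nuclei stained with SYTOX Green and counted against counting beads by flow cytometry at 488 nm excitation, with vinblastine (no S9) and cyclophosphamide (plus S9) as positive controls.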

O=c1[nH]cnc2c1ncn2[C@H]1CC[C@@H](CO)O1 [2',3'-Dideoxyinosine]
Conditions	hypodiploid nuclei frequency, [3] [%]	micronucleus frequency, [2] [%]	relative survival, [1]
concentration: 4.5 (µM), S9 metabolic activation: with S9, exposure time: 3-4 hours	0.3	1.52	94.9
concentration: 4.5 (µM), S9 metabolic activation: without S9, exposure time: 24 hours	0.76	1.3	98.4
concentration: 5.63 (µM), S9 metabolic activation: with S9, exposure time: 3-4 hours	0.1	1.64	94.3
concentration: 5.63 (µM), S9 metabolic activation: without S9, exposure time: 24 hours	0.46	1.72	74.3
concentration: 7.04 (µM), S9 metabolic activation: with S9, exposure time: 3-4 hours	0.36	1.34	115
concentration: 7.04 (µM), S9 metabolic activation: without S9, exposure time: 24 hours	0.36	1.04	140
concentration: 8.8 (µM), S9 metabolic activation: with S9, exposure time: 3-4 hours	0.18	1.32	104
concentration: 8.8 (µM), S9 metabolic activation: without S9, exposure time: 24 hours	0.62	1.66	90
concentration: 11 (µM), S9 metabolic activation: with S9, exposure time: 3-4 hours	0.42	2.26	112
concentration: 11 (µM), S9 metabolic activation: without S9, exposure time: 24 hours	0.56	1.18	102
concentration: 13.7 (µM), S9 metabolic activation: with S9, exposure time: 3-4 hours	0.2	1.7	109
concentration: 13.7 (µM), S9 metabolic activation: without S9, exposure time: 24 hours	0.36	1.8	103
concentration: 17.2 (µM), S9 metabolic activation: with S9, exposure time: 3-4 hours	0.3	1.76	116
concentration: 17.2 (µM), S9 metabolic activation: without S9, exposure time: 24 hours	0.38	1.64	99.5
concentration: 21.5 (µM), S9 metabolic activation: with S9, exposure time: 3-4 hours	0.16	1.18	124
concentration: 21.5 (µM), S9 metabolic activation: without S9, exposure time: 24 hours	0.74	1.64	85.3
concentration: 26.8 (µM), S9 metabolic activation: with S9, exposure time: 3-4 hours	0.2	1.06	110
concentration: 26.8 (µM), S9 metabolic activation: without S9, exposure time: 24 hours	0.2	1.6	72
concentration: 33.6 (µM), S9 metabolic activation: with S9, exposure time: 3-4 hours	0.24	1.86	77.7
concentration: 33.6 (µM), S9 metabolic activation: without S9, exposure time: 24 hours	0.46	1.72	57.7
concentration: 41.9 (µM), S9 metabolic activation: with S9, exposure time: 3-4 hours	0.3	1.28	86.9
concentration: 41.9 (µM), S9 metabolic activation: without S9, exposure time: 24 hours	0.42	1.28	65.6
concentration: 52.4 (µM), S9 metabolic activation: with S9, exposure time: 3-4 hours	0.27	1.12	52.5
concentration: 52.4 (µM), S9 metabolic activation: without S9, exposure time: 24 hours	0.52	1.82	62.1
concentration: 65.5 (µM), S9 metabolic activation: with S9, exposure time: 3-4 hours	0.18	1.2	70.7
concentration: 65.5 (µM), S9 metabolic activation: without S9, exposure time: 24 hours	0.54	1.52	53.8
concentration: 81.9 (µM), S9 metabolic activation: with S9, exposure time: 3-4 hours	0.14	0.94	71.4
concentration: 81.9 (µM), S9 metabolic activation: without S9, exposure time: 24 hours	0.84	2.22	72.8
concentration: 102 (µM), S9 metabolic activation: with S9, exposure time: 3-4 hours	0.22	0.96	66.8
concentration: 102 (µM), S9 metabolic activation: without S9, exposure time: 24 hours	0.6	1.5	78.5
concentration: 128 (µM), S9 metabolic activation: with S9, exposure time: 3-4 hours	0.18	1.18	66.4
concentration: 128 (µM), S9 metabolic activation: without S9, exposure time: 24 hours	0.6	2.06	77.2
concentration: 160 (µM), S9 metabolic activation: with S9, exposure time: 3-4 hours	0.27	0.98	53.7
concentration: 160 (µM), S9 metabolic activation: without S9, exposure time: 24 hours	0.76	3.04	81.8
concentration: 200 (µM), S9 metabolic activation: with S9, exposure time: 3-4 hours	0.06	1.2	91.7
concentration: 200 (µM), S9 metabolic activation: without S9, exposure time: 24 hours	0.86	2	63.6

OCC(CO)(CBr)CBr [2,2-Bis(bromomethyl)-1,3-propanediol]
Conditions	hypodiploid nuclei frequency, [3] [%]	micronucleus frequency, [2] [%]	relative survival, [1]
concentration: 4.5 (µM), S9 metabolic activation: with S9, exposure time: 3-4 hours	0.22	1.18	114
concentration: 4.5 (µM), S9 metabolic activation: without S9, exposure time: 24 hours	0.56	1.1	113
concentration: 5.63 (µM), S9 metabolic activation: with S9, exposure time: 3-4 hours	0.34	1.52	131
concentration: 5.63 (µM), S9 metabolic activation: without S9, exposure time: 24 hours	0.54	1.38	95.5
concentration: 7.04 (µM), S9 metabolic activation: with S9, exposure time: 3-4 hours	0.16	1.68	112
concentration: 7.04 (µM), S9 metabolic activation: without S9, exposure time: 24 hours	0.44	1.6	106
concentration: 8.8 (µM), S9 metabolic activation: with S9, exposure time: 3-4 hours	0.14	1.42	118
concentration: 8.8 (µM), S9 metabolic activation: without S9, exposure time: 24 hours	0.62	1.38	121
concentration: 11 (µM), S9 metabolic activation: with S9, exposure time: 3-4 hours	0.22	1.54	113
concentration: 11 (µM), S9 metabolic activation: without S9, exposure time: 24 hours	0.5	1.28	109
concentration: 13.7 (µM), S9 metabolic activation: with S9, exposure time: 3-4 hours	0.24	1.66	109
concentration: 13.7 (µM), S9 metabolic activation: without S9, exposure time: 24 hours	0.5	1.58	109
concentration: 17.2 (µM), S9 metabolic activation: with S9, exposure time: 3-4 hours	0.3	1.78	99
concentration: 17.2 (µM), S9 metabolic activation: without S9, exposure time: 24 hours	0.8	1.26	109
concentration: 21.5 (µM), S9 metabolic activation: with S9, exposure time: 3-4 hours	0.12	1.6	103
concentration: 21.5 (µM), S9 metabolic activation: without S9, exposure time: 24 hours	0.52	1.14	103
concentration: 26.8 (µM), S9 metabolic activation: with S9, exposure time: 3-4 hours	0.16	0.94	126
concentration: 26.8 (µM), S9 metabolic activation: without S9, exposure time: 24 hours	0.58	1.88	107
concentration: 33.6 (µM), S9 metabolic activation: with S9, exposure time: 3-4 hours	0.1	1.08	119
concentration: 33.6 (µM), S9 metabolic activation: without S9, exposure time: 24 hours	0.42	2	103
concentration: 41.9 (µM), S9 metabolic activation: with S9, exposure time: 3-4 hours	0.24	1.04	104
concentration: 41.9 (µM), S9 metabolic activation: without S9, exposure time: 24 hours	0.54	1.2	106
concentration: 52.4 (µM), S9 metabolic activation: with S9, exposure time: 3-4 hours	0.26	0.9	95.1
concentration: 52.4 (µM), S9 metabolic activation: without S9, exposure time: 24 hours	0.7	1.22	91
concentration: 65.5 (µM), S9 metabolic activation: with S9, exposure time: 3-4 hours	0.28	1.1	93
concentration: 65.5 (µM), S9 metabolic activation: without S9, exposure time: 24 hours	0.46	1.46	91
concentration: 81.9 (µM), S9 metabolic activation: with S9, exposure time: 3-4 hours	0.32	1.44	104
concentration: 81.9 (µM), S9 metabolic activation: without S9, exposure time: 24 hours	0.56	1.06	108
concentration: 102 (µM), S9 metabolic activation: with S9, exposure time: 3-4 hours	0.12	1.14	99.9
concentration: 102 (µM), S9 metabolic activation: without S9, exposure time: 24 hours	0.52	1.44	104
concentration: 128 (µM), S9 metabolic activation: with S9, exposure time: 3-4 hours	0.22	1.06	100
concentration: 128 (µM), S9 metabolic activation: without S9, exposure time: 24 hours	0.78	1.42	81.9
concentration: 160 (µM), S9 metabolic activation: with S9, exposure time: 3-4 hours	0.3	1.34	107
concentration: 160 (µM), S9 metabolic activation: without S9, exposure time: 24 hours	0.6	1.4	96
concentration: 200 (µM), S9 metabolic activation: with S9, exposure time: 3-4 hours	0.26	1.78	100
concentration: 200 (µM), S9 metabolic activation: without S9, exposure time: 24 hours	0.78	2.2	78.6
